Common to all, as to assay: glycan array binding signal (z-score within array); higher = stronger binding
Holding throughout (conditions): glycan notation: IUPAC condensed, linker removed

One test concerns the target Gal(b1-4)Glc. Put shortly:
(§1)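 Columns mapping to the same glycan were averaged after glycan names were converted to IUPAC-condensed notation. The data come from 3228 arrays in the Consortium for Functional Glycomics database, limited to those with an available protein sequence. Binding is reported as a within-array Z-score averaged across arrays of one protein sequence and across linkers.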

A further test has as its target Gal(b1-4)Glc6S. Put shortly: as §1
Another test addresses Gal(b1-4)GlcNAc. In a few lines: as §1
Test [1] has as its target Gal(b1-4)GlcNAc(a1-6)Gal(b1-4)GlcNAc. In a few lines:
as §1

Another test addresses Gal(b1-4)GlcNAc(b1-2)Man. In a few lines:
as §1

Test [2] deals with Gal(b1-4)GlcNAc(b1-2)Man(a1-3)Man(b1-4)GlcNAc(b1-4)GlcNAc. Put shortly:
as §1

Test [3] deals with Gal(b1-4)GlcNAc(b1-2)Man(a1-3)[Gal(b1-4)GlcNAc(b1-2)Man(a1-6)]Man(b1-4)GlcNAc(b1-4)GlcNAc. Put shortly:
as §1

The target of test [4] is Gal(b1-4)GlcNAc(b1-2)Man(a1-3)[Gal(b1-4)GlcNAc(b1-2)Man(a1-6)]Man(b1-4)GlcNAc(b1-4)[Fuc(a1-6)]GlcNAc. In a few lines:
as §1

The target in test [5] is Gal(b1-4)GlcNAc(b1-2)Man(a1-3)[Gal(b1-4)GlcNAc(b1-2)Man(a1-6)][Gal(b1-4)GlcNAc(b1-4)]Man(b1-4)GlcNAc(b1-4)[Fuc(a1-6)]GlcNAc. Put shortly: as §1
Test [6] concerns the target Gal(b1-4)GlcNAc(b1-2)Man(a1-3)[Gal(b1-4)GlcNAc(b1-2)Man(a1-6)][GlcNAc(b1-4)]Man(b1-4)GlcNAc(b1-4)[Fuc(a1-6)]GlcNAc. Put shortly: as §1
Test [7] has as its target Gal(b1-4)GlcNAc(b1-2)Man(a1-3)[GlcNAc(b1-2)Man(a1-6)]Man(b1-4)GlcNAc(b1-4)GlcNAc. In a few lines: as §1
Test [8] has as its target Gal(b1-4)GlcNAc(b1-2)Man(a1-3)[GlcNAc(b1-4)][Gal(b1-4)GlcNAc(b1-2)Man(a1-6)]Man(b1-4)GlcNAc(b1-4)GlcNAc. In a few lines:
as §1

In test [9] the target is Gal(b1-4)GlcNAc(b1-2)Man(a1-3)[Man(a1-6)]Man(b1-4)GlcNAc(b1-4)GlcNAc. In a few lines: as §1
Test [10] has as its target Gal(b1-4)GlcNAc(b1-2)Man(a1-6)Man(b1-4)GlcNAc(b1-4)GlcNAc. Put shortly: as §1
Test [11] has as its target Gal(b1-4)GlcNAc(b1-2)Man(a1-6)[GlcNAc(b1-2)Man(a1-3)]Man(b1-4)GlcNAc(b1-4)GlcNAc. In a few lines: as §1
For test [12], the target named is Gal(b1-4)GlcNAc(b1-2)Man(a1-6)[Man(a1-3)]Man(b1-4)GlcNAc(b1-4)GlcNAc. In a few lines: as §1
Test [13] addresses Gal(b1-4)GlcNAc(b1-2)[Gal(b1-4)GlcNAc(b1-4)]Man(a1-3)[Gal(b1-4)GlcNAc(b1-2)Man(a1-6)]Man(b1-4)GlcNAc(b1-4)GlcNAc. Put shortly: as §1
Test [14] concerns the target Gal(b1-4)GlcNAc(b1-2)[Gal(b1-4)GlcNAc(b1-4)]Man(a1-3)[Gal(b1-4)GlcNAc(b1-2)[Gal(b1-4)GlcNAc(b1-6)]Man(a1-6)]Man(b1-4)GlcNAc(b1-4)GlcNAc. In a few lines: as §1

This is an account of results in the supplement of paper PMC8728848.

The other results are listed elsewhere or left out.

B1: SP16664D-bth-476-27-476 (Bacteroides thetaiotaomicron) (protein)
chain: DDLEVGKNIDESAYSGIYENNAYLRDGKSNLVSKVVELHGETYATTVKMGLSKTPNTATSAKVKIDAAYLETYNKAHNTDFALYPQDLVTFANEGILTVNANTKSAEVEMTIRAGEGLQEDKTYAIPVAISDQSSDITIKDEDAKHCIYLVKDMRNAGDAYKGEGVMQGYLFFEVNDVNPLNTLSFQLENGKLLWDVVVLFAANINYDAEAGRPRVQCNPNVQYLLDNNETLLQPLRRRGVKVLLGLLGNHDITGLAQLSEQGAKDFAREVAQYCKAYNLDGVNYDDEYSNSPDLSNPSLTNPSTAAAARLCYETKQAMPDKLVTVFDWGQMYGVATVDGVDAKEWIDIVVANYGSAAYPIGQMTKKQCSGISMEFNLGGGGSLSASKAQSMIDGGYGWFMGFAPSPAKYGSVFSRLQGGGEVLYGSNVAAPTIFYKKNDPTPYKYPDDL
In the case of B1, the “glycan array binding signal (z-score)” value is -0.258 with Gal(b1-4)Glc; -0.023 in the test with Gal(b1-4)Glc6S; -0.242 with Gal(b1-4)GlcNAc; -0.085 in [1]; 0.174 with Gal(b1-4)GlcNAc(b1-2)Man; 0.63 in [2]. In addition, the “glycan array binding signal (z-score)” value is -0.211 in test [3]; 0.197 in [4]; 0.05 in test [5]; -0.015 in test [6]; -0.155 in test [7]; -0.2 in test [8]. Moreover, the “glycan array binding signal (z-score)” value in test [9] is -0.248; in test [10] it was -0.067; in test [11], -0.082; in test [12], 0.218; in test [13] it was 0.086; in test [14] it was -0.383.
